From PubChem BioAssay AID1865 (National Center for Advancing Translational Sciences (NCATS), 2009)
The whole screen tested about 280,000 compounds, of which about 540 (0.19%) were called active. The inconclusive results got no clear call from the source; some entries with a clear call stand among them for comparison. Calls come from the whole dose curve; as a rule, active = well fitted activation curve with a large enough effect; inconclusive = small, poorly fitted or top-dose-only effect; inactive = flat fitted curve, though single readings scatter. Where the call is inconclusive, the potency comes from a doubtful curve fit.

Experiment: Quantitative High-Throughput Screen for Regulators of Epigenetic Control; note: nearly all actives have a fitted effect of over 60% in size; for GFP activation: % of control where 0% means no effect
Conditions: murine LDR cells, GFP reporter derepression, 30 h; GFP activation: at 53.9 µM (top of the series)
Summary of the method: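 Derepression of a silenced CMV-GFP reporter in murine LDR cells is scored by enumerating GFP-positive cells with a laser-scanning microplate cytometer after 30 hours of treatment at 37 C.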
Potency is the fitted concentration of half-maximal effect; tags give direction and shape of the fitted curve.

SMILES | Potency | GFP activation
COCCNC(=O)CSc1nc(-c2ccccc2C)nc2c1c(=O)n(C)c(=O)n2C | inactive | 
CC1=C(C)CS(=O)N(S(=O)(=O)c2ccc(Cl)cc2)C1 (stereo not drawn) | inactive | 
O=C(NCc1ccco1)/C(=C/c1ccc(C(F)(F)F)cc1)c1nc2ccccc2[nH]1 | inconclusive: 31.6 µM [activator, single point] | 
COc1cccc(C2Nc3cccc4cccc(c34)N2)c1 | inconclusive: 7.08 µM [activator, single point] | 
Oc1c(CN2CCN(c3ccccn3)CC2)cc(Cl)c2cccnc12 | inconclusive: 4.47 µM [activator, single point] | 
CCOC(=O)CC1C(=O)NCCN1c1nc2c(C)cccn2c(=O)c1/C=C1\SC(=S)N(C(C)CC)C1=O (stereo not drawn) | active: 7.08 µM | 
Cc1cc(Br)ccc1NC(=O)C1CCN(S(=O)(=O)c2ccc(Br)s2)CC1 | inconclusive: 20 µM [activator, single point] | 
O=C(COc1cccc2ccccc12)N1CCN(c2ccccc2)CC1 | inactive | 
Cc1ccc(/C=C2/SC(=S)N(CCC(=O)N3CCN(C)CC3)C2=O)cc1 | inconclusive: 35.5 µM [activator, single point] | 
COc1ccccc1N1CCN(C(=O)COc2ccc(Cl)cc2Br)CC1 | inactive | 
Cc1ccc(-n2[nH]c(C)c(/C=N/N3C(=O)c4cccc5cccc(c45)C3=O)c2=O)cc1 | inconclusive: 22.4 µM [activator, single point] | 
CO[C@@H]1/C=C\CC(=O)N2CCC[C@@H]2C(=O)OC[C@@H](C)C(=O)OC[C@H]1C |  | inactive: 1.14% [at 10.1 µM]
COc1ccc(Nc2nc3c(C)cccc3cc2C#N)c(OC)c1 | inconclusive: 10 µM [activator, partial curve] | 
COc1cc2c3nnc(-c4ccc(F)cc4)c-3cn(Cc3cccc(C)c3)c2cc1OC | active: 3.55 µM | 
CNC(=S)NNC(=O)c1oc2nc(-c3ccccc3)cc(-c3ccco3)c2c1N | active: 15.8 µM | 
CCOC(=O)c1cc(NC(=O)Nc2cc(C)ccn2)c(C)nc1C | inconclusive: 15.8 µM [activator, single point] | 
CCCCCCCn1c(NC(=O)CC)nc2ccccc21 | inconclusive: 31.6 µM [activator, single point] | 
Cc1ccc(CSc2ncc(Cl)c(C(=O)Nc3sc4c(c3C(N)=O)CCCC4)n2)cc1 | inconclusive: 25.1 µM [activator, single point] | 
CCOC(=O)c1cnc2ccc(OCC)cc2c1Nc1cc(Cl)c(OC)cc1OC | inconclusive: 35.5 µM [activator, single point] | 
N#Cc1ccc(-c2cccnc2)nc1SCC(=O)c1ccccc1 | inconclusive: 17.8 µM [activator, partial curve] | 
COc1cccc(NC(=S)NN2C(C)CCCC2C)c1 (stereo not drawn) | inactive | 
CC(=O)N1CCc2cc(S(=O)(=O)NC(Cc3ccccc3)C(=O)Nc3ccc(Cl)cc3)ccc21 (stereo not drawn) | inconclusive: 35.5 µM [activator, single point] | 

SMILES | Potency | GFP activation
CN(C)c1ccc(C(=O)/C=C/c2ccco2)cc1 | inactive | 
OCCNc1c2ccccc2nc2ccccc12 | inconclusive: 31.6 µM [activator, single point] | 
O=C(Nc1nc(-c2ccccn2)cs1)c1ccc(Cl)s1 | active: 22.4 µM | 
Cc1nonc1NC(=O)c1ccc(Cl)c(S(=O)(=O)N2CCCCC2)c1 | inactive | 
Cc1ccc(-c2nn(-c3ccccc3)cc2C=C2C(=O)CC(C)(C)CC2=O)cc1 | inconclusive: 35.5 µM [activator, single point] | 
C=CCOn1c(=O)c(C)[n+]([O-])c2ccccc21 | inconclusive: 22.4 µM [activator, single point] | 
COc1ccc(/C=C2/CCc3ccccc3C2=O)cc1OC | inactive | 
O=C(CSc1nc2ccsc2c(=O)n1Cc1ccccc1Cl)NCc1ccc(Cl)cc1 | inconclusive: 35.5 µM [activator, single point] | 
O=C(CSc1nc2ccccc2n1Cc1c(F)cccc1Cl)N1CCN(c2ccc(F)cc2)CC1 | inconclusive: 35.5 µM [activator, single point] | 
Cc1cccn2c(=O)c3cc(S(=O)(=O)c4ccccc4)c(=N)n(Cc4ccco4)c3nc12 | inconclusive: 25.1 µM [activator, single point] | 
CCC(C(=O)N1CCN(c2ccccc2)CC1)n1nc(C)c2sc3ccccc3c2c1=O (stereo not drawn) | inactive | 
COc1ccc2oc(C(=O)Nc3nc4ccccc4[nH]3)c(C)c2c1 | inconclusive: 31.6 µM [activator, single point] | 
CCOc1ccc2c(c1)c(=O)c(C(=O)c1ccc(CC)cc1)cn2CC(=O)Nc1ccccc1C | inconclusive: 22.4 µM [activator, single point] | 
O=c1[nH][nH]c(-c2ccccc2O)c1C(C[N+](=O)[O-])c1ccccc1 (stereo not drawn) | inconclusive: 31.6 µM [activator, single point] | 
Cc1cc(/C=C(/C#N)C(=O)Nc2ccc(Cl)cc2)c(C)n1-c1cccnc1 | inconclusive: 31.6 µM [activator, single point] | 
O=c1c[n+]([O-])c2ccccc2n1OCc1ccccn1 | inconclusive: 20 µM [activator, single point] | 
Cc1ccc(NC(=O)Cn2c(=O)n(Cc3nc(-c4ccccc4)no3)c(=O)c3cc4c(cc32)OCO4)c(C)c1 | inconclusive: 25.1 µM [activator, single point] | 
COc1ccc(Cl)cc1NC(=O)CSC1=Nc2ccccc2C2=NC(CC(=O)NCc3cccs3)C(=O)N12 (stereo not drawn) | inconclusive: 35.5 µM [activator, single point] | 
O=C(CCN1CCOCC1)c1ccc(Cl)cc1 | inconclusive: 14.1 µM [activator, single point] | 
CCOC(=O)c1cc2c(=O)n3ccccc3nc2n(Cc2ccco2)c1=NC(=O)c1ccc(OCC)cc1 | inconclusive: 31.6 µM [activator, single point] | 
Oc1ccc(N=Cc2ccc(OCc3ccccc3)cc2)cc1 | inconclusive: 31.6 µM [activator, single point] | 
